# In all, about 110,000 compounds were measured (“z-score”: median about -0.1, highest 2% from about 2 on). The list shows a part of the results. Activity calls are given as the source filed them.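 Rule for the calls: active = z-score in the third read window above 3 or below -3; inactive = the rest.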
# Biological target: Metabotropic glutamate receptor 8 (Rattus norvegicus) (UniProt P70579)
# Experiment: mGluR8 Gi/Go-coupled signaling modulation – cell-based, rat, thallium flux, HTS, primary screen (AID 488969)
# Conditions: HEK293 rat mGluR8, GIRK (G protein-gated inwardly rectifying potassium channel) thallium flux, FluoZin2; at 10 µM; stronger effect = higher value; submaximal glutamate (EC20) added with thallium
# Sequence of UniProt P70579 (P70579 whole entry, looked up): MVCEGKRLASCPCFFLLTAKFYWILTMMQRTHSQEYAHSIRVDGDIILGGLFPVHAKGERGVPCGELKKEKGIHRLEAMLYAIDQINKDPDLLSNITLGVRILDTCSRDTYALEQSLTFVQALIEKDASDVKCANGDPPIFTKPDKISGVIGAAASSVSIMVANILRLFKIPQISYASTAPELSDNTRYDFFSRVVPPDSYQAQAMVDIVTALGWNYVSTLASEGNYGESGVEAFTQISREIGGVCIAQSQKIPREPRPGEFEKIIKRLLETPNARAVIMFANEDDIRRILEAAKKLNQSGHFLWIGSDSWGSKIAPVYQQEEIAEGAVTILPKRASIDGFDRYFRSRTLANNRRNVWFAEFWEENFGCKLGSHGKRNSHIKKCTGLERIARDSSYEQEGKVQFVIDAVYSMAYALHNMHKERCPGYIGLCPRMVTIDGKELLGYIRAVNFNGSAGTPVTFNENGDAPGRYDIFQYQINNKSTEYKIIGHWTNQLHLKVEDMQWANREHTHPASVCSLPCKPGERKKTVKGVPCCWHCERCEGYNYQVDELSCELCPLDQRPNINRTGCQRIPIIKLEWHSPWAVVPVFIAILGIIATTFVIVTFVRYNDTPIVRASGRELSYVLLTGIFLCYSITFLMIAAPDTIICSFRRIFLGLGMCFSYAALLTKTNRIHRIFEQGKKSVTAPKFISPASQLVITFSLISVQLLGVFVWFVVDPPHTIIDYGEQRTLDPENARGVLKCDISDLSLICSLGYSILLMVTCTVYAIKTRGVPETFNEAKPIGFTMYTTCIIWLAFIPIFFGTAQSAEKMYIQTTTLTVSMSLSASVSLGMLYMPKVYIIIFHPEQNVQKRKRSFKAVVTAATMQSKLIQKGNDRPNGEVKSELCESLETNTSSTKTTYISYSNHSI
row,SMILES,z-score
1,CCCCOCP(=O)(CC)COCCCC,0.0954
2,COc1ccccc1OCc1ccc(C(=O)Nc2ccncc2)o1,0.198
3,CCCn1c(N)c(C(c2ccc(OC)cc2)N2CCN(c3ccccc3)CC2)c(=O)[nH]c1=O (configuration not stated),0.035
4,COc1ccc(NC(=S)NNC(=O)c2ccccc2OC(F)F)cc1,0.204
5,COc1cc(/C=C2\C(=O)N(CCC#N)N=C2C)ccc1OCC(=O)Nc1ccccc1,-1
6,O=C(c1ccc2c(c1)OCCO2)N(c1ccccn1)C1CCCCC1,0.0462
7,CCn1c(SCC(=O)Nc2ccc(C(=O)OC)cc2)nnc1-c1cccs1,-0.248
8,CCN(CC)C(=O)c1ccc2c(=O)n(CCOC)c(=S)[nH]c2c1,-0.0865
9,O=C1c2ccccc2C(=O)N1CCc1csc(-c2ccccc2)n1,-0.0668
10,CC(=O)NC(CCS(C)(=O)=O)C(=O)Nc1ccccc1 (configuration not stated),-0.0623
11,CSCCC(NC(=O)c1occc1C)C(=O)O (configuration not stated),-0.0531
12,COc1ccccc1NC(=O)c1ccccc1SC,0.302
13,Cc1cccc(N2CCN(C(=S)NCCc3ccccc3)CC2)c1C,-0.289
14,CCCCCNC(=O)CCc1ccccc1,0.18
15,CCOC(=O)CSc1nc2sc3c(c2c(=O)n1C1CCCCC1)CCN(C)C3,0.832
16,O=C(CCS(=O)(=O)c1ccc(Br)cc1)Nc1cc(F)ccc1F,-0.0256
17,Cc1cc(C(=O)Nc2sc3c(c2C#N)CCC3)no1,-0.0664
18,Cc1ccc(S(=O)(=O)Nc2cccc3c2CCCC3)cc1,-0.724
19,O=C(N/N=C\c1ccccc1OCc1ccccc1)c1ccco1,-0.634
20,Cc1nnc(SCC(=O)N2CCCc3ccccc32)[nH]c1=O,-0.411
21,c1cc(-c2nnc3n2CCC3)[nH]n1,0.305
22,CC(C)(C#CCN1CCCCC1)OCCOC(c1ccccc1)c1ccccc1,-0.206
23,CCN(CC)S(=O)(=O)c1ccc(-c2nnc(SCC(=O)Nc3ccc(OC)c(OC)c3)o2)cc1,0.581

row,SMILES,z-score
1,O=C(/C=C1\SC(=O)N(CC(=O)Nc2ccc(F)cc2)C1=O)Nc1ccc(Cl)cc1,-0.227
2,Cc1ncn(C23CC4CC(CC(O)(C4)C2)C3)n1,-0.328
3,CCOc1ccccc1N1CCN(Cc2cccc(OC)c2O)CC1,-0.0607
4,C=CCN=C1SCC(=O)N1S(=O)(=O)c1ccc(C)cc1,0.0451
5,O=C(c1cccc(F)c1)N1CCc2ccccc2C1,-0.184
6,CC1OC2C(OC1C)N(S(C)(=O)=O)CCN2S(C)(=O)=O (configuration not stated),0.246
7,Cn1nnnc1SCC(=O)N(C1CCCCC1)C1CCCCC1,2.45
8,c1ccc(Nc2cc(Nc3ccccc3)[nH]n2)cc1,0.781
9,Cc1ccc(N/N=C2\COC(C)(C)CC2=O)cc1,-0.116
10,O=[N+]([O-])c1cccnc1N1CCCCC1,-0.00595
11,CCc1ccc(NC(=O)CN2C(=O)CSC2=O)cc1,-0.183
12,CCOC(=O)C(C(=O)OCC)N(C#N)c1nc(SC)nc(N(C)C)n1,-0.541
13,Cc1ccc2c(c1)n([O-])c1c([n+]2=O)CCCC1,-0.166
14,O=C(COc1ccc(Cl)cc1Cl)NC(=O)N1CCCCC1,1.09
15,CCCn1c(SCC(=O)N2CCN(c3ccc(OC)cc3)CC2)nc2c1c(=O)n(C)c(=O)n2C,-0.485
16,CCOC(=O)C(NC(=O)Cc1ccccc1)(Nc1cc(C)on1)C(F)(F)F (configuration not stated),-0.041
17,CCOC(=O)/C(C#N)=C1/SC(CC)C(=O)N1c1ccc(Br)cc1 (configuration not stated),-1.15
18,Cc1nn(Cc2ccc(Cl)cc2Cl)c(C)c1NC(=O)CCl,0.885
19,CCn1cc(C(=O)NCc2ccc3c(c2)OCO3)c(=O)c2cc(F)c(N3CCN(C)CC3)cc21,-0.452
20,O=C(O)c1ccc(NS(=O)(=O)c2cccc3cccnc23)cc1,-0.277
21,CCc1ccc2nc3sc(C(=O)N4CCc5ccccc54)c(N)c3cc2c1,-0.0724
22,COc1ccc(C(=O)NC(=S)Nc2ccccc2N2CCOCC2)cc1Br,0.169
23,CCOC(=O)c1cc(C)sc1/N=C/C1=C(O)CCCC1=O,-0.139

row,SMILES,z-score
1,COc1ccccc1/C=C/C=N/NC(=O)CCC1C(=O)NN=C1C (configuration not stated),-0.661
2,CC(=O)c1cccc(S(=O)(=O)Nc2cccc(S(=O)(=O)NC3=NCCC3)c2)c1,-0.155
3,CSc1ccc(Cn2nnc(C(=O)Nc3ccc(C)c(C)c3)c2N)cc1,-0.13
4,COc1cc(C(=O)OCCN2CCOCC2)ccc1O,-1.44
5,Cc1c(C)n(C)c2ccc([N+](=O)[O-])cc12,-0.0554
6,COc1ccc(-n2c(=O)c3c4c(sc3n3c(=S)[nH]nc23)CCCC4)cc1,0.825
7,CCCN(C(=O)CSc1nnc(-c2ccoc2C)n1N)C1CCS(=O)(=O)C1 (configuration not stated),-0.719
8,CCN(CC)S(=O)(=O)c1ccc(C(=O)Nc2cc(C)cc(C)c2)cc1,-0.47
9,CCC(=O)NNc1cc(=O)c2c(=O)n(C)c(=O)n(C)c2[nH]1,0.0356
10,CCN(CC)C(=O)C1CCCN(Cc2sccc2C)C1 (configuration not stated),-0.0538
11,CC1CCN(C(=O)c2cc(-c3ccccc3O)on2)CC1,-0.827
12,COc1ccc(/C=C2\SC(=O)N(CCNC(=O)C3CCN(S(=O)(=O)c4cccs4)CC3)C2=O)cc1,0.617
13,Cc1ccc(C)c(S(=O)(=O)N2CCN(CC(=O)NC(=O)NCc3ccccc3)CC2)c1,-1.57
14,COc1cccc2cc(C(=O)N3CCN(C(=O)c4ccccc4)CC3)c(=O)oc12,0.291
15,Cc1cc(C)nc(N2CCC(C(=O)O)CC2)n1,-0.412
16,O=C(Nc1ccccc1C(=O)N1CCOCC1)c1cccc(S(=O)(=O)N2CCCC2)c1,0.0183
17,COc1ccc(-c2cc(N3C(=O)Nc4ccccc4N3O)n[nH]2)cc1,1.88
18,Cc1nc(S(=O)(=O)c2ccc(Cl)cc2Cl)nc2c1CCC2,-0.295
19,CCC(C(=O)Nc1ccccc1)c1ccccc1 (configuration not stated),0.444
20,O=C(NCc1ccncc1)C(=O)NCC(c1ccco1)N1CCN(c2ccc(F)cc2)CC1 (configuration not stated),-0.172
21,O=C(N/N=C/C1CCCCC1)c1ccccn1,-0.056
22,CN(C)S(=O)(=O)c1ccc(NCC2COc3ccccc3O2)c([N+](=O)[O-])c1 (configuration not stated),-0.179
23,CCOc1cc(C2C(C(=O)N3CCOCC3)=C(C)NC3=C2C(=O)CCC3)ccc1O (configuration not stated),-0.19

row,SMILES,z-score
1,Cc1nc(CS(=O)c2ccc(Cl)cc2)cc(N2CCOCC2)n1 (configuration not stated),0.0146
2,c1ccc2c(-c3nc(C4CCCCC4)no3)cc(-c3ccncc3)nc2c1,0.87
3,CN(C)S(=O)(=O)c1cc(NC(=O)COC(=O)c2ccc3c(c2)OCO3)ccc1Cl,active: 10.1
4,COc1cc(OC)c(-n2c(C)cc(C=O)c2C)cc1Cl,0.207
5,CN(C)S(=O)(=O)c1cccc(NC(=O)COc2cccc(C#N)c2)c1,active: 3.82
6,COc1ccc(CCNc2nc(C)cc(=O)[nH]2)cc1OC,0.259
7,C[n+]1c2n(c3ccccc31)N=C(c1ccc(Cl)cc1)CS2,0.0842
8,CCN1C(=O)/C(=C\N2CCN(c3ccc(F)cc3)CC2)SC1=S,0.0731
9,CN1C(=O)NC(NC(=O)c2ccco2)(C(F)(F)F)C1=O (configuration not stated),0.842
10,O=C(Nc1cccc(S(=O)(=O)N2CCCCC2)c1)c1ccc2c(=O)n3c(nc2c1)CCCCC3,-0.34
11,O=C(Oc1cccnc1)c1cccc(Cl)c1,0.111
12,CCOC(=O)CN1C(=O)C(O)(c2c(C)[nH]c3ccccc23)c2ccccc21 (configuration not stated),0.217
13,COc1ccc(OCc2nc(C#N)c(N3CCN(c4ccc(OC)cc4)CC3)o2)cc1,0.916
14,Cn1c(NCc2ccccc2)cc(=O)n(C)c1=O,0.432
15,COc1ccc(OC)c(NC(=O)Cn2cc(C#N)c3ccccc32)c1,-0.119
16,C=CCNC(=O)/C(=C\C=C\c1ccccc1)NC(=O)c1ccc(OCCCC)cc1,-0.246
17,C=CCOc1ccccc1CNn1nnnc1N,0.0758
18,CCCCCn1c(CCNC(=O)c2cccs2)nc2ccccc21,-0.977
19,Cc1ccc(S(=O)(=O)Nc2ccccc2C(=O)Nc2nc(-c3ccc(F)cc3)cs2)cc1,0.463
20,COc1ccc(-c2noc(CSc3nc(-c4ccccc4)cc(=O)[nH]3)n2)cc1,0.593
21,CCOc1cccc(-c2nnc3sc(COc4ccc(Cl)cc4)nn23)c1,0.486
22,N#C/C(=C\c1cn(Cc2ccc(C#N)cc2)c2ccccc12)C(=O)NCc1cccs1,-0.161
23,C[C@H](N)c1nnc(SCc2c(Cl)cccc2Cl)o1,0.175

row,SMILES,z-score
1,Cc1noc(C)c1C(=O)OCC(=O)c1c[nH]c2ccccc12,0.313
2,COc1ccc2cc(C(=O)NCCO)sc(=O)c2c1OC,-0.297
3,CCOC(=O)C1CCCN(CC(=O)Nc2c(C(=O)OC)[nH]c3ccc(Cl)cc23)C1 (configuration not stated),-0.59
4,Cc1ccc(C(=O)Nc2c(C(=O)N3CCOCC3)cnn2-c2ccccc2)cc1,-0.509
5,CC1(C)C=C(c2ccc(C(=O)O)s2)CC(C)(C)N1,-0.278
6,CCCC(=O)Nc1ccc(N2CCN(C(=O)CCC)CC2)cc1,-0.88
7,COC(=O)c1ccc(NC(=O)CCN2CCN(Cc3ccccc3)CC2)cc1,-0.104
8,CC(C)c1nc2ccccn2c1NC1CCCCC1,0.45
9,CCn1c(-c2cccnc2Cl)nc2cc(Cl)c(Cl)cc21,-0.597
10,Cc1coc(NC(=O)CSc2nc(-c3ccncc3)cc(C(F)(F)F)c2C#N)n1,0.412
11,CCOC(=O)/C(=N\Nc1ccc(Cl)cc1)Sc1nnc(-c2ccc(OC)cc2)n1C,-0.112
12,OCCNCCCCCOc1ccc(F)cc1,-0.393
13,CC(C)c1nnc(NC(=O)c2c(O)c3cccc4c3n(c2=O)CCC4)s1,-1.01
14,O=c1c2ccsc2ncn1Cc1cccc(C(F)(F)F)c1,-0.17
15,COc1ccc(C(=O)/C=C/c2ccc(C)cc2)c(OC(=O)c2ccc([N+](=O)[O-])cc2)c1,0.0347
16,Cc1cc(C)nc(SCC(=O)NC2=NC(=O)C(C)S2)n1 (configuration not stated),0.0487
17,Cc1ccc(C(=O)c2c(NC(=O)c3ccccc3C)sc(C)c2C)cc1,-0.151
18,CC(NC1CCCC1)C(=O)Nc1ccccc1-c1ccccc1 (configuration not stated),-0.0603
19,C=CCNC(=S)NNC(=O)c1cccn(Cc2ccc(Cl)c(Cl)c2)c1=O,-0.8
20,CCCc1nc(SCC(=O)Nc2ccccc2)c2c(=O)n(C)c(=O)n(C)c2n1,0.298

# From PubChem BioAssay AID488969 (Vanderbilt High Throughput Screening Facility, 2010)
